This is one part of the list.
test system: PF3D7_0420300 AP2 domain 1 (GST-tagged); experiment: gcPBM binding intensity (ln(normalized median fluorescence intensity)); higher = stronger DNA binding
How it was run: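 Plasmodium falciparum DNA-binding domains carrying a GST tag were expressed in E. coli and applied for 1 h, at about 25 μg on average, to an Agilent 4 × 180k array. The array held primer-extended double-stranded 36-bp intergenic genomic probes together with negative controls, and binding took place in 1× PBS with 1% milk, 0.2 mg/ml BSA, 0.5% salmon testes DNA and 0.03% Triton X-100. An Alexa488 anti-GST antibody detected bound protein, and the array was scanned at 488 nm. Binding intensity is taken as the highest Masliner-normalised natural-log median intensity across replicate spots of either probe orientation.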

Row | Sequence | gcPBM binding intensity (ln)
1 | AAAGGGGAGATATGAACACACAAAAAAAAAATATAT [CACACA_site7378] | 9.58
2 | TATATATATTTTAAATGTACTTATAAATTACCACTT [XGTACX_site5673] | 9.09
3 | AAATAAAATTTTTGTTGTACTTATTTTTAGTATACT [XGTACX_site4254] | 9.24
4 | AATATTTACAGACATGCGCACACATAAATAAATAAT [CACACA_site8760] | 9.59
5 | AGAAAGGATATAAGCGTAGCTATATCATAAAAAATG [GTGCAC_negctrl_site332] | 9.06
6 | TAAATAAATTTGCACTGTACGCAAAAAAAAAAAAGA [XGTACX_site8781] | 9.29
7 | GTATATATATATTTATGTACTTACCTACATAATTAT [XGTACX_site4435] | 9.49
8 | TGAAAAAAAAAATGCACACGCATACATATAATATGT [CACACA_site641] | 9.41
9 | AAACATAAATATGAGAGTACAAAAAATATTATGAAT [XGTACX_site151] | 9.56
10 | ATCTCTTAAATTTTACGTACTTATTTTATCTTCTTA [XGTACX_site8877] | 9.66
11 | TTATAATATATTACAAGTTCATTCATATAATATGTT [CACACA_negctrl_site1695] | 9.12
12 | AATAAATACATACATACATGCATACATATATCTCAA [TGCATGCA_site1040] | 9.34
13 | AAAAATAAAATATATATATATATATATATATATATA [CACACA_negctrl_site58] | 8.95
14 | TATTTTTATATATATACACACTTACAGATATATATT [CACACA_site5905] | 9.4
15 | AATCCTTACAGACACACACACACGAATAAATAAAAA [CACACA_site480] | 10
16 | TATGTATTATCAAAAAGTACTAAAAAAAAATAATAA [XGTACX_site4703] | 9.19
17 | TATATATGTATATGTGTGCACCTTATTTCTTTTATT [GTGCAC_site9513] | 9.66
18 | TTATAATTTTTGAGCACACACAAGCATATATATATA [CACACA_site1798] | 9.38
19 | ATAAATGTTATGCATACACACTTTATACCTATTTAA [CACACA_site5967] | 9.41
20 | CCTTTTAAGAGTTGCACACGTACAAAAAAAAAAAAA [CACACA_site3492] | 9.01
21 | AATAATAAAAAATACGCACACATGTAAACGTATGTT [CACACA_site3336] | 9.47
22 | GGCGATATAGAACTACGTACTTATACAAATTATAAT [XGTACX_site2307] | 9.12

Row | Sequence | gcPBM binding intensity (ln)
23 | ACACATAAATGTATATATATATAAATATATGTATGT [CACACA_negctrl_site1532] | 9.44
24 | TATATATATATATATAAGCTTATAATAAAACAAAAA [XGTACX_negctrl_site568] | 9.29
25 | ATAGCAATAATGGAAAGTACAAAAAAACTTGTTATA [XGTACX_site8518] | 9.29
26 | TGTATTAATAAAAATACACACATCATATTATATAAA [CACACA_site3534] | 9.3
27 | AACAAAATAAAACACACACACAAATGTACATATATA [CACACA_site2424] | 10.2
28 | TAGAAGCATCATTTTACACACATGCAAATGTAAACT [CACACA_site6973] | 9.41
29 | ATTTTGTATTGACGCTGTACAAACATTAATATAATA [XGTACX_site2496] | 9.17
30 | TTTTGCGTAGCAACGAGGTTTTTAAAAATGTAACCA [GTGCAC_negctrl_site691] | 8.85
31 | ACATATGAATATTTTTGTACGTATATTGTTATTCTT [XGTACX_site4720] | 9.61
32 | AAAAAAAAAAAACACACACACACATACAAAATATAT [CACACA_site1448] | 10.3
33 | TTTTTTTTTATTATCATGCACACATTTTTTTTTTTT [CACACA_site2254] | 9.61
34 | GTAATTTAAATAACAAGTACTAATGTGGATAAGCAG [XGTACX_site1163] | 9.51
35 | AATTATACGAAATAAAACTTAATAGACAAAAAATTA [CACACA_negctrl_site1384] | 9.33
36 | ATAATATGCAATATTACACACAATTCATCATTTTTT [CACACA_site7477] | 9.46
37 | GTATATTTAAATAAAAGTACGTAAAGATATATTTAA [XGTACX_site8087] | 9.04
38 | ATATGTAAAATGAAGATACATACATACATACATACA [CACACA_negctrl_site715] | 9.26
39 | ATGTTATAAAATATATGTACATATTTATATAAAATA [XGTACX_site5766] | 9.14
40 | ATATTATATATATGATGTACTAAATATATTATTATG [XGTACX_site1703] | 9.22
41 | ATAAATAATTAGAATTGTACAAAAATTATATATATG [XGTACX_site5107] | 9.21
42 | TATTTTATATTATCATGTACAAAAAAAAAGAAAAGA [XGTACX_site5379] | 9.17
43 | TTTATATTCTTTTTTTAACACACAAAAAAAATAAAA [CACACA_site8574] | 8.98
44 | TCTATTAATGAATATACACACATTATATATATATAT [CACACA_site5410] | 9.43

From the supplement of paper PMC11417369
